The record followed here is ChEMBL document CHEMBL4888484, “Replenishing the malaria drug discovery pipeline: Screening and hit evaluation of the MMV Hit Generation Library 1 (HGL1) against asexual blood stage Plasmodium falciparum ,using a nano luciferase reporter read-out” (2022).

Screen size: about 150,000 compounds; about 540 (0.36%) showed an effect of 50% or more. Some of the results follow.

The assay relates to Plasmodium falciparum. The assay is described as follows: Primary screen in NF54 nanoGlo assay, in single point, at 2uM, 72h; a lower Z score goes with more inhibition. The note with it: timepoint 72 hour. It counts as functional, Erythrocyte.
For the compound `COc1cc(-c2cc(C3CCC3)nc(N)c2C#N)cc(Cl)c1O`, the % Inhibition (in general, the change of the read-out against control, counted positive when it falls) is recorded as -9% and the Z score is on record as 1.45.
Take `Cn1ccnc1[C@H]1CCN(c2nc3cc(S(N)(=O)=O)ccc3[nH]2)C1`: the “% Inhibition” value is -8% and the Z score stood at 1.07.
For `O=C1NC(=O)C(Cc2ccc(NC(=O)[C@H]3C[C@@H]3c3cccc(Cl)c3)cc2)N1` (stereo not given in full), the “% Inhibition” value is -7% and the Z score is listed as 1.35.
For `CC(C)c1cc(CN(C)C(=O)CN2C(=O)OC[C@@H]2c2ccccc2)no1`, the “% Inhibition” value is on record as -9% and the Z score is recorded as 1.61.
`COc1cc2c(cc1OC)CN(C(=O)CC1C[C@H]3CC[C@@H]1C3)CC2` (stereo not given in full): the “% Inhibition” value is on record as -15% and the Z score is listed as 1.91.
For `CC(C)CNC(=O)c1nc2cccnc2n(C)c1=O` the same measures were -12% and 1.86.
For `Cc1ncn(CCNS(=O)(=O)CC(C)C)c1C`, in that order: -13% and 2.25.
As for `COc1ccc(CN(C)c2cc([C@H]3C[C@@H](N)C3)ncn2)cc1`, the “% Inhibition” value was -4% and the Z score was found to be 0.58.
For `Cc1cc(Br)cc(C(=O)N(CC(N)=O)C(C)C)c1` the same measures were -3% and 0.49.
For `COCC(=O)Nc1cc(C(=O)N(C)C2CCOCC2)cc2ncn(CCc3ccccc3)c12`, in that order: 14% and -1.88.
Regarding `Cc1oc(C2CCN(S(=O)(=O)c3ccc(C(C)C)cc3)CC2)nc1C(=O)N(C)C`, the “% Inhibition” value is listed as -7% and the Z score is recorded as 1.1.
For `O=C(O)C[C@@H]1CCN(C(=O)NC2CCCCC2)C[C@@H]1CCN1CCCCC1`, in that order: 10% and -1.52.
For `O=C(Cn1nc(C2CC2)ccc1=O)N1CCN(c2ncccn2)CC1`, in that order: 11% and -1.45.
For `Cc1cc(C)cc(C2(c3noc(C4C[C@@H]5CC(=O)[C@H]4C5)n3)CC2)c1` (stereo not given in full), in that order: 18% and -2.23.
For `O=C(CCc1cc(O)no1)N1CCC(c2cc(N3CCCC3)ncn2)CC1`, the “% Inhibition” value is given as -10% and the Z score turned out to be 1.45.
For `CC(C)C(=O)N1CCC[C@H](Nc2nc3cc(C(=O)O)ccc3n2C)C1` the same measures were -14% and 2.41.
For `CC(=O)N1CCN(C(=O)N[C@H](C)c2ccc(F)cc2)CC1` the same measures were -15% and 2.82.
For `Cc1noc(C)c1C[C@H](C)NS(=O)(=O)CCC(C)(F)F` the same measures were -8% and 1.12.
As to `O=C(c1cccc(-c2ccc3nccc(O)c3c2)c1)N1CCN(CCO)CC1`, the “% Inhibition” value is recorded as -18% and the Z score stood at 3.37.
Take `CCOc1cc(C(=O)N2CCN(S(C)(=O)=O)CC2)ncn1`: the “% Inhibition” value is given as -9% and the Z score is recorded as 1.67.
Take `CC[C@H]1CCCCN1CCNC(=O)NCc1scnc1C`: the “% Inhibition” value was determined as 1% and the Z score was -0.17.
For `Cc1ncncc1C(=O)N(C)[C@H]1CCCN(C(=O)COCC(F)F)C1` the same measures were -3% and 0.44.
On to `COc1cc(C)nc(NC(=O)[C@H]2CCCOCC2)n1`, for which the “% Inhibition” value is given as -9% and the Z score is 1.57.
For `C[C@H](NCc1nnc2ccccn12)C1CN(C(=O)OC(C)(C)C)C1` the same measures were 4% and -0.53.
For `CCc1cc(N(C)Cc2noc(C)n2)nc(C)n1`, in that order: -10% and 0.96.
With `CCCCN(C(=O)c1ccccc1)C(=O)c1ccccc1`, the “% Inhibition” value turned out to be 36% and the Z score is on record as -4.04.
With `O=C(Cc1n[nH]c(=O)[nH]1)N[C@H]1CCc2ccccc21`, the “% Inhibition” value is recorded as -5% and the Z score is recorded as 0.88.
Turning to `O=C(CCc1ccncc1)N[C@H]1CC(=O)N(Cc2cccc3ccccc23)C1`, the “% Inhibition” value is on record as -4% and the Z score was found to be 0.61.
In the case of `Cc1ccc(OC2CCN(C(=O)c3nn(C)c4c3CCCC4)CC2)cc1`, the “% Inhibition” value is given as -10% and the Z score worked out at 1.11.
For the compound `CCCn1cnc(NC(=O)NCc2cc(CC)no2)n1`, the “% Inhibition” value is listed as -7% and the Z score came out at 0.89.
For `CCCC[C@H](CC)C(=O)NCc1ccc(S(N)(=O)=O)cc1`, in that order: -1% and 0.11.
As for `O[C@H]1COC[C@@H]1Nc1ncc(Cl)cn1`, the “% Inhibition” value is -8% and the Z score is recorded as 1.6.
For `Cc1ccc(COc2cccc(CNC3CC3)c2)cc1`, in that order: 30% and -4.1.
For `COC(=O)[C@]1(NCC(=O)NCc2cccc(OC)c2)CCCN(Cc2ccccc2)C1`, in that order: -8% and 0.68.
For `c1ccc(CN2CCCCCCC2)nc1`, in that order: -16% and 3.
With `O=C(Nc1cccc2ncccc12)[C@@H]1COc2ccccc2O1`, the “% Inhibition” value was -1% and the Z score is reported as 0.11.
For `CCS(=O)(=O)N1CCC[C@H](c2cc(F)ccc2F)C1`, in that order: -2% and 0.46.
For `COc1ccc(CNC(=O)N2CCC[C@H](Cc3nncn3C)C2)cc1`, in that order: -9% and 1.13.
For `C=C(C)COc1ccccc1CN1CCN2CCNC(=O)[C@@H]2C1` the same measures were -4% and 0.45.
With `O=C(c1ccc(Oc2ccccc2)o1)N1CCNC(=O)C12CCCC2`, the “% Inhibition” value is -9% and the Z score worked out at 1.65.
For `O=c1[nH]c(=O)n(CCS(=O)(=O)c2ccccc2)cc1Cl` the same measures were -11% and 1.09.
As for `C[C@]1(O)CCN(Cc2ccc(-c3ccccc3C#N)o2)C[C@@H]1O`, the “% Inhibition” value is -5% and the Z score was determined as 0.75.
For `CC(C)Cc1cc(C(=O)N2CCc3ccccc3C2)no1` the same measures were -6% and 0.65.
For `C[C@@H]1NC(=O)N(CCc2cccc(C(=O)N(C)C)c2)C1=O`, the “% Inhibition” value was -12% and the Z score is on record as 1.58.
In the case of `COc1ccc([C@H]2[C@H](C(=O)NCc3c(C)noc3C)CCC(=O)N2C)cc1`, the “% Inhibition” value was found to be 30% and the Z score was -3.4.
In the case of `Cc1[nH]c2ncnc(N3CCNC(=O)C3)c2c1C`, the “% Inhibition” value is -4% and the Z score came out at 0.6.
For `O=C1C[C@@H]2CCN(C3CCC(F)(F)CC3)C[C@@H]2CCOc2ccccc2N1`, in that order: 0% and -0.02.
For `COC1CCC(C)(CNC(=O)N2CCC(C)C(C(=O)O)C2)CC1` (stereo not given), in that order: -2% and 0.43.
For `CCN(CC)c1nc2ncn(CC(=O)Nc3ccc(C)cc3Cl)c(=O)c2s1`, the “% Inhibition” value was -8% and the Z score worked out at 0.99.
On to `CCCN(CC1CC1)C(=O)c1c[nH]c(C(F)(F)F)c1`, for which the “% Inhibition” value was found to be 4% and the Z score is listed as -0.54.
In the case of `O=C(NCc1ccccc1Cl)c1cn(C[C@H](O)c2cccs2)nn1`, the “% Inhibition” value is recorded as -2% and the Z score is 0.47.
For `Cc1n[nH]c2c1CN(S(=O)(=O)c1cc(-c3ccno3)sc1C)CC2`, in that order: -3% and 0.31.
For `CC1CCN(S(=O)(=O)Nc2cccnc2)CC1`, in that order: 6% and -1.04.
In the case of `COC(=O)c1ccccc1Cn1ncc2c1[C@@H](NC(=O)OC(C)(C)C)CCC2`, the “% Inhibition” value was -9% and the Z score is 1.44.
For `Cn1c(-c2ccccc2Cl)c(-c2cn3ccccc3n2)c(=O)n(C)c1=O`, in that order: -6% and 0.62.
For `Cc1ccc2ncc(CN3CCN(c4nnc(C)s4)CC3)cc2c1`, in that order: -3% and 0.44.
Turning to `O=S(=O)(c1cncc(F)c1)N(Cc1ccccc1)c1ccncc1`, the “% Inhibition” value is recorded as -7% and the Z score is 1.17.
As to `CCCn1nc(CCOC)nc1-c1cc(CC(C)C)nn1C`, the “% Inhibition” value is listed as -4% and the Z score stood at 0.83.
Turning to `Cc1nc([C@H](C)NC(=O)c2c[nH]nn2)cs1`, the “% Inhibition” value is reported as -16% and the Z score stood at 3.47.
For `CC(=C1CCCC1)c1nc(-c2ccncc2)no1`, the “% Inhibition” value is -6% and the Z score was 1.06.
For `CC(C)C[C@@H](CNC(=O)COCc1nc2ccccc2c(=O)[nH]1)N1CCOCC1` the same measures were 34% and -3.8.
For `CC(=O)N1C[C@@H](O)C[C@@H]1C(=O)N1CCCC1c1ccc(F)cc1C` (stereo not given in full) the same measures were 0% and -0.05.
Consider `Cc1c(C(=O)N[C@H]2CCN(Cc3cscn3)C[C@@H]2O)ccn1C`, for which the “% Inhibition” value was -9% and the Z score was 0.92.
Take `COC1CC2C(=O)N(C3CCN(c4ccccn4)CC3)C(=O)N2C1` (stereo not given): the “% Inhibition” value turned out to be 3% and the Z score is given as -0.44.
As to `CCOc1cc2c(cc1OCC)[C@@H]1CC(=O)N(c3ccc4c(c3)OCO4)C(=O)N1CC2`, the “% Inhibition” value came to 12% and the Z score is listed as -2.02.
In the case of `Cc1cccc(NC(=O)Cn2c(C)cc(=O)n3nc(-c4cccc(C)c4)nc23)c1`, the “% Inhibition” value was -3% and the Z score came out at 0.39.
For `COc1ccc([C@H]2CN(c3nc(N(C)C)nc(C)c3C)C[C@@H]2N)cc1`, in that order: 8% and -1.16.
For the compound `CN1CCC(Cc2ccc(CN(C(=O)C3CCCC3)C3CC3)cc2)CC1`, the “% Inhibition” value is -10% and the Z score worked out at 1.85.
For `COc1ccc2c(c1)N(C(=O)NC1CCCCC1)C(C)(C)C[C@@H]2C` the same measures were -4% and 0.44.
In the case of `O=C(NCc1nncn1-c1ccc(F)cc1)c1cccnc1O[C@H]1CCOC1`, the “% Inhibition” value is given as 8% and the Z score is given as -1.43.
For `CO[C@@H](CN=C(N)N1CCCCCC1)C(C)C`, in that order: -7% and 0.89.
For `Cc1cn2nc(NC3CC(C)n4ccnc43)sc2n1` (stereo not given), in that order: 0% and -0.03.
For `CC[C@H](C)[C@@H]1NC(=O)N(C2CC(c3ccccc3)C2)C1=O` (stereo not given in full) the same measures were -5% and 0.88.
Regarding `CC(C(O)c1ccc2ccccc2c1)N1CCCCC1` (stereo not given), the “% Inhibition” value is -1% and the Z score was determined as 0.26.
On to `CC1(C)CN(C(=O)c2ccc(S(C)(=O)=O)cc2)[C@@H]1c1ccccc1`, for which the “% Inhibition” value is -4% and the Z score is listed as 0.65.
`Cc1cc(C)cc(OCC(=O)N2CCCC[C@@H]2CCN2CCCCC2)c1`: the “% Inhibition” value was -10% and the Z score was 1.37.
Turning to `Fc1ccc(-c2ccc(Cn3ccnc3)cn2)c(Cl)c1`, the “% Inhibition” value was -7% and the Z score worked out at 1.
As for `C[C@@H](NC(=O)Nc1ccn(Cc2ccncc2)n1)C1CC1`, the “% Inhibition” value was -7% and the Z score was 1.44.
Regarding `O=C(C1CCC1)N1CCC(CCCc2ccccc2)(C(=O)O)CC1`, the “% Inhibition” value is recorded as -8% and the Z score turned out to be 0.77.
For `Cc1ccccc1OCC(=O)Nc1cc(N)cc(Oc2ccccc2)c1` the same measures were -1% and 0.22.
Take `O=C(c1cc2n(n1)CCCO2)N1CC[C@H](Oc2cccnn2)C1`: the “% Inhibition” value is -7% and the Z score came to 0.8.
On to `Cc1[nH]c2ccccc2c1C1CCN(C(=O)C2CC3CCC2O3)CC1` (stereo not given), for which the “% Inhibition” value was determined as 8% and the Z score is on record as -1.24.
For the compound `COc1ccc(-c2cc(C(=O)N3CCN(c4ccc(F)cc4)CC3)on2)cc1OC`, the “% Inhibition” value is reported as -1% and the Z score amounted to 0.09.
For `CCOC(=O)c1c(S(=O)(=O)N2CCC[C@H](C(=O)Nc3ccccc3OC)C2)c(C)n(CC)c1C`, in that order: 8% and -1.6.
Take `CCOC(Cn1cc(C(=O)NCCc2cccc(Cl)c2)nn1)OCC`: the “% Inhibition” value was -26% and the Z score came out at 3.09.
